Test results as given in ChEMBL document CHEMBL1201862, “PubChem BioAssay data set” (2004).
Values joined by “and” are separate entries in the source; they are usually repeats but may differ in a detail not shown here. Identical values can stand only once.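 1) Cells in 96-well plates. 2) Compound, 48 h, 5 concentrations. 3) Linear interpolation between surrounding doses. 4) Unreached endpoint = highest concentration. Here, GI50 denotes the concentration required for 50% inhibition of growth.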 Active and inactive are the calls of the source. No stated cut-off is given here; in the data, active = GI50 up to about 1.1 µM and inactive = higher.

These molecules were tested on NCI-H322M (assay: inhibition of tumour cell growth, NCI panel, 48 h).

SMILES	GI50
O=C(CCCn1ccnc1[N+](=O)[O-])NCCn1cnc([N+](=O)[O-])c1	inactive: > 100 µM
COc1ccc2c(C)cc(C)nc2n1	inactive: > 100 µM
CN(CC(=O)O)S(=O)(=O)c1ccc(F)cc1	inactive: > 100 µM
COC(=O)c1c(C(=O)OC)c2ccc(-c3ccc(Cl)cc3)nn2c1C(=O)c1ccc([N+](=O)[O-])cc1	inactive: > 100 µM
Cc1cc(=O)c2c(O)cc3c(c2o1)CC=C(COC1OC(COC2OC(CO)C(O)C(O)C2O)C(O)C(O)C1O)CO3 (stereo not drawn)	inactive: > 100 µM
CC[P+]1(c2ccccc2)CCCCC1	inactive: > 100 µM
CCCN(C(=O)c1c(Cl)nnc(Cl)c1C(=O)c1cc(Cl)nnc1Cl)c1cc(Cl)nnc1Cl	inactive: 13.7 µM
O=C(/C=C/c1ccccc1)CCN1CCN(CCC(=O)/C=C/c2ccccc2)CC1	inactive: 26 µM
Cc1c(C(=O)O)n(C)c(=O)n(C)c1=O	inactive: > 100 µM
O=P(O)(CN1CCN(CP(=O)(O)c2ccccc2)CCN(CP(=O)(O)c2ccccc2)CC1)c1ccccc1	inactive: > 100 µM
O=C(O)c1ccccc1/N=C/c1ccc(N(CCCl)CCCl)cc1	inactive: > 100 µM
COc1c2c(cc3c1OCO3)[C@]13C=C[C@H](OC)C[C@H]1N(C2)CC3O (stereo partly drawn)	inactive: > 100 µM
COc1ccc(-n2c(N)c(C#N)c(C#N)c2-c2ccccc2)cc1	inactive: > 100 µM
Cc1cc(Cl)nc2nc(Cl)c(N)cc12	inactive: 12.1 µM
Nc1n[nH]c2nc3ccc(C(F)(F)F)cc3nc12	inactive: 31.8 µM
O=C(OCc1nc2ccc(Br)cc2c(=O)n1-c1ccccc1)c1ccccc1O	inactive: > 100 µM
O=C(CSCC(=O)N/N=C\c1cccc([N+](=O)[O-])c1)N/N=C\c1cccc([N+](=O)[O-])c1	inactive: 39.9 µM
C=C(C(=O)O)[C@@H]1C[C@@H]2O[C@H]1CC(C)=CCC/C(C)=C/CC[C@@]2(C)O	inactive: > 100 µM
CC(=O)Nc1ccc(C(=O)NN2C(=O)C(Cl)C2c2ccc(O)cc2)cc1 (stereo not drawn)	inactive: 65 µM
O=C(O)c1ccc(N2C=[N+]3C(=Nc4ccccc43)C2)cc1	inactive: > 100 µM
O=C(NCCC1([N+](=O)[O-])CCN(C(=O)c2ccccc2)CC1)c1ccccc1	inactive: 84.7 µM

SMILES	GI50
COC1CC(Br)(C#N)C1 (stereo not drawn)	inactive: > 100 µM
Cc1ccc2nc3ccccc3c(C3C4C(=O)N(c5ccc(Br)cc5Cl)C(=O)C4ON3C(C(N)=O)c3ccccc3)c2c1 (stereo not drawn)	inactive: > 25 µM
Cc1c(N2C(=O)CS(=O)(=O)C2c2cccc(Oc3ccccc3)c2)c(=O)n(-c2ccccc2)n1C (stereo not drawn)	inactive: 22.2 µM
Cc1ccc(S(=O)(=O)SC/C=C\CSS(=O)(=O)c2ccc(C)cc2)cc1	inactive: 52.4 µM
COc1c(Sc2c(SCSc3cnc4ccccc4c3Sc3cnc4ccccc4c3OC)cnc3ccccc23)cnc2ccccc12	inactive: > 100 µM
COc1ccc2c(-c3ccc(O)cc3)c(Oc3ccccc3)c(=O)oc2c1	inactive: 5.92 µM
O=C(NCc1ccc(Cl)c(Cl)c1)c1nc2ccccc2nc1NCc1ccc(Cl)c(Cl)c1	inactive: > 100 µM
COC(=O)C(=O)C(C(=O)C(=O)Nc1cc(Cl)c(Cl)cc1Cl)c1nc2ccc([N+](=O)[O-])cc2nc1O (stereo not drawn)	inactive: > 100 µM
O=C(Cc1ccccc1)N/N=C(/c1nc2ccc([N+](=O)[O-])cc2nc1O)C(O)c1ccc(C(O)/C(=N/NC(=O)Cc2ccccc2)c2nc3ccc([N+](=O)[O-])cc3nc2O)cc1 (stereo not drawn)	inactive: > 100 µM
CN(C)c1ccc(/C=C/c2sc3ccccc3[n+]2C)cc1	inactive: 11 µM and inactive: 12.9 µM
COc1cc(O)c2c(c1)C(=O)C=C(Cl)C2=O	inactive: 52.4 µM
N#C/C(=N\c1ccccc1N(C(=O)c1ccccc1)C(=O)c1ccccc1)c1ccccc1	inactive: 24 µM
Cc1ccc(S(=O)(=O)N/N=c2/sc3ccccc3n2C)cc1	inactive: > 100 µM
COc1cccc2c1C(=O)c1c(O)c3c(c(O)c1C2=O)C[C@@](O)(C(C)=O)C[C@@H]3OC1OC(C)C(O)C(N)C1Br (stereo partly drawn)	active: 0.231 µM
CCOC(=O)[C@@]1(C(C)=O)CC(C)=C(C)C[S@@+]1[O-]	inactive: > 100 µM
CCn1c(CSc2nc(-c3ccccc3)c(-c3ccccc3)[nH]2)n[nH]c1=S	inactive: > 100 µM
NN/C(=N\S(=O)(=O)c1cc(S(=O)(=O)c2ccccc2)cs1)Nc1ccc(Cl)cc1	inactive: 33.4 µM
Nc1ccn(CCOC(=O)c2ccccc2)c(=O)n1	inactive: > 100 µM
N=C(N)NCC1CCCCCCN1 (stereo not drawn)	inactive: > 100 µM
O=C(/C=C/c1ccccc1)OCC1=C[C@@H](O)[C@@H]2C=CO[C@@H](OC3OC(CO)C(O)C(O)C3O)[C@H]12 (stereo partly drawn)	inactive: > 100 µM
Cc1cccc(NC(=O)Cc2nc3ccccc3s2)c1C	inactive: > 100 µM

SMILES	GI50
CCCCC(=O)OC[n+]1ccc2c(C)c3[nH]c4ccccc4c3c(C)c2c1	active: 0.222 µM
CC1(C)OC[C@@H](/C=C\CCO[Si](c2ccccc2)(c2ccccc2)C(C)(C)C)N1C(=O)c1ccccc1	inactive: 20.8 µM
Cc1ccc(C(=O)N/N=C(\N=N\c2cccc(Cl)c2)c2ccc(N(CCC#N)CCC#N)cc2C)cc1	inactive: > 100 µM
CC1C[C@]2(C)C(=O)N(c3ccccc3)C(=N)[C@@H]2N(C)c2ccccc21 (stereo partly drawn)	inactive: > 100 µM
O=c1[nH]nc(Cc2ccc(Cl)cc2)n1/N=C/c1cccs1	inactive: > 100 µM
Cc1cc(O)c2c(c1O)C(=O)C13C(=C(O)C4C(O)C1C1C(O)C3C(O)=C3C(=O)c5c(O)cc(C)c(O)c5C(=O)C341)C2=O (stereo not drawn)	active: 0.0775 µM
COC(=O)C12C3C4(C(=O)OC)C1C1(C(=O)OC)C2C3(C(=O)OC)C41C(=O)N(C(C)C)C(C)C (stereo not drawn)	inactive: > 100 µM
CCOc1ccc(NCC2CC/C(=C\c3ccc(Cl)cc3)C2=O)cc1 (stereo not drawn)	inactive: > 100 µM
CCc1nc(N)nc(N)c1-c1ccc(Cc2ccccc2)c([N+](=O)[O-])c1	active: 0.051 µM
CC(C)(C)c1ccc2c(c1)OCc1n[nH]c(n1)COc1cc(C(C)(C)C)ccc1OCCOCCO2	inactive: 8.3 µM
O=C(O)c1ccccc1Sc1ccccc1[N+](=O)[O-]	inactive: > 100 µM
CCOC(=O)CCCN	inactive: > 100 µM
O=C(C1OC1c1ccc(F)cc1)C12CC3CC(CC(C3)C1)C2 (stereo not drawn)	inactive: 20.2 µM
Cc1[nH]c2ccccc2c1C1CC(=O)NC1=O (stereo not drawn)	inactive: > 100 µM
CN(C)CCCNc1ccc2nnn3c4ccc(OC(=O)c5ccc([N+](=O)[O-])cc5)cc4c(=O)c1c23	inactive: 5.32 µM
CCCCCCCCCCCCCCCCP(=O)(O)OP(=O)(O)OCC1OC(n2ccc(N)nc2=O)C(O)C1O (stereo not drawn)	inactive: > 100 µM and inactive: > 62.4 µM
COC1O[C@@H]2COC(C)(C)O[C@@H]2C(=O)N1Nc1ccc([N+](=O)[O-])cc1 (stereo partly drawn)	inactive: > 100 µM
CC(=O)NC1=C(C)C(=O)c2c(nc3n2CCC3OC(=O)c2ccccc2)C1=N (stereo not drawn)	inactive: 3.14 µM
CC1(Br)C(=O)NC(=O)N([C@H]2C[C@H](O)[C@@H](CO)O2)C1N=[N+]=[N-] (stereo partly drawn)	inactive: > 100 µM
COc1cc2c(c(OC)c1OC)-c1ccc(OC)c(=O)cc1[C@@H](N(C)C=O)CC2	active: 0.0152 µM
CCSc1nc(-c2cccs2)nc2ccc(I)cc12	inactive: 27.4 µM
